From the supplement of paper PMC10126150
Values marked as one replicate rest on one cluster of the flow cell; about a third of the high ones do not repeat.
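Also: ATP exposure 15 min at 22 °C before imaging.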

Each sequence was assayed on ATP (assay: switch fluorescence ratio, 500 uM ATP over buffer (Cy3 cluster intensity, sum of 5 cycles each) (fold (ratio)); higher = stronger signal-on switching upon ATP binding; sequences stand for … in TCGTCGGCAGCGTCAGATGTGTATAAGAGACAGTTTTTTTTTTTTTTTTTTTTTTTTT…TC). Conditions: aptamer strand: ATP DNA aptamer (quencher-CACCTGGGGGAGTATTGCGGAGGAAGG + anchor), 100 nM annealed; ATP concentration: 500 uM; one replicate.
How it was run: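 Switching-strand clusters labelled with Cy3 on a modified Illumina MiSeq flow-cell were annealed to 100 nM quencher-labelled ATP aptamer, imaged in selection buffer, and re-imaged after 15 min with 500 uM ATP at 22 °C. This was done over five cycles with NaOH stripping and re-annealing in between. The fluorescence ratio is summed target-cycle over summed buffer-cycle Cy3 intensity per cluster, averaged per switch-domain sequence, excluding clusters outside 100-1000 RFU.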
ACTGTATGAG showed a switch fluorescence ratio of 1.13. ACTGTCTACG gave a switch fluorescence ratio of 1.12. With ACTGTGCCAG the switch fluorescence ratio was 1.07. Sequence ACTGTGGTA has a switch fluorescence ratio of 1.01. ACTGTTAATT was tested, and the switch fluorescence ratio was 1.06. In the case of ACTGTTAGTT, the switch fluorescence ratio is reported as 1.05. ACTGTTCGTA showed a switch fluorescence ratio of 0.974. Sequence ACTTAAAGCC has a switch fluorescence ratio of 1.05. Work on ACTTAACGGT yielded a switch fluorescence ratio of 1.34. ACTTACCTGC was tested, and the switch fluorescence ratio was 1.27. ACTTACGGGT showed a switch fluorescence ratio of 1.19. Sequence ACTTACGTT has a switch fluorescence ratio of 1.44. ACTTAGCCTT showed a switch fluorescence ratio of 1.1. ACTTAGTAGT gave a switch fluorescence ratio of 1.02. ACTTATACTT gave a switch fluorescence ratio of 1.14. Sequence ACTTATATAC has a switch fluorescence ratio of 1.25. ACTTATTGTT showed a switch fluorescence ratio of 0.982. ACTTCAATAG showed a switch fluorescence ratio of 1.12. Sequence ACTTCTGGGA has a switch fluorescence ratio of 0.969. In the case of ACTTGAACTA, the switch fluorescence ratio is reported as 1.14. ACTTGATTGA was tested, and the switch fluorescence ratio was 0.98. Sequence ACTTTATGAG has a switch fluorescence ratio of 1.03. Sequence ACTTTCGGAA has a switch fluorescence ratio of 1.15. With ACTTTCTTGC the switch fluorescence ratio was 1. ACTTTGTGGT showed a switch fluorescence ratio of 0.982. Sequence AGAAACAACG has a switch fluorescence ratio of 1.04. Work on AGAAACGCAC yielded a switch fluorescence ratio of 1.73. AGAAACGCTT gave a switch fluorescence ratio of 1.04. For AGAAACGGT, the switch fluorescence ratio was 0.989. AGAAACTTTT gave a switch fluorescence ratio of 0.969. For AGAAAGAAGC, the switch fluorescence ratio was 0.972. For AGAAAGTCAT, the switch fluorescence ratio was 0.969. AGAAAGTGGG showed a switch fluorescence ratio of 0.975. For AGAAAGTTAT, the switch fluorescence ratio was 0.984. In the case of AGAAATATTA, the switch fluorescence ratio is reported as 0.966. In the case of AGAAATGCAG, the switch fluorescence ratio is reported as 1.05. With AGAAATGTCA the switch fluorescence ratio was 1.08. AGAAATTTAA gave a switch fluorescence ratio of 1.19. Sequence AGAACAAGTA has a switch fluorescence ratio of 1.01. Work on AGAACCATTT yielded a switch fluorescence ratio of 0.989. With AGAACGCCGG the switch fluorescence ratio was 0.947. In the case of AGAACGTACG, the switch fluorescence ratio is reported as 1.29. With AGAACGTGAC the switch fluorescence ratio was 1.34. For AGAACTCTCG, the switch fluorescence ratio was 0.991. Sequence AGAACTTCAT has a switch fluorescence ratio of 1.04. With AGAAGAGCAC the switch fluorescence ratio was 1.03. AGAAGCCAGC showed a switch fluorescence ratio of 1.06. AGAAGGCGAC showed a switch fluorescence ratio of 1.02. AGAAGGGTAG showed a switch fluorescence ratio of 0.979. Sequence AGAAGGTAAC has a switch fluorescence ratio of 1.35. With AGAAGGTCAG the switch fluorescence ratio was 1.03. AGAAGTACAG showed a switch fluorescence ratio of 1.25. Work on AGAAGTAGGC yielded a switch fluorescence ratio of 0.928. Sequence AGAAGTGCAT has a switch fluorescence ratio of 1. AGAAGTTAAA was tested, and the switch fluorescence ratio was 1.03. For AGAATACGTC, the switch fluorescence ratio was 1.04. Sequence AGAATAGATG has a switch fluorescence ratio of 0.971. For AGAATATAGC, the switch fluorescence ratio was 0.981. Sequence AGAATGAAGA has a switch fluorescence ratio of 0.992. AGAATGACAG was tested, and the switch fluorescence ratio was 0.982. Work on AGAATGCTTG yielded a switch fluorescence ratio of 1.02. AGAATGTGGC gave a switch fluorescence ratio of 0.988. In the case of AGAATTCCAT, the switch fluorescence ratio is reported as 0.933. AGAATTGGAT gave a switch fluorescence ratio of 0.979. AGAATTTCGG showed a switch fluorescence ratio of 0.954. AGACAACAAC showed a switch fluorescence ratio of 1.06. In the case of AGACAAGCTC, the switch fluorescence ratio is reported as 1.03. With AGACAAGGG the switch fluorescence ratio was 1.02. Work on AGACAATTTC yielded a switch fluorescence ratio of 1.03. AGACATAAGG was tested, and the switch fluorescence ratio was 1. AGACATAGGA showed a switch fluorescence ratio of 0.999. AGACATTCGG showed a switch fluorescence ratio of 1. Work on AGACCACAGG yielded a switch fluorescence ratio of 1.09. AGACCCAACG was tested, and the switch fluorescence ratio was 1.03. Work on AGACCCGCCC yielded a switch fluorescence ratio of 1.3. For AGACCCGGCA, the switch fluorescence ratio was 1.07. With AGACCGCTTT the switch fluorescence ratio was 1. For AGACCGTGAC, the switch fluorescence ratio was 1.15. In the case of AGACCTTGGA, the switch fluorescence ratio is reported as 1.04. Sequence AGACCTTTG has a switch fluorescence ratio of 1.04. In the case of AGACGACGTC, the switch fluorescence ratio is reported as 0.993. In the case of AGACGATGGG, the switch fluorescence ratio is reported as 0.963. Sequence AGACGCCTAA has a switch fluorescence ratio of 1.04. With AGACGCCTCA the switch fluorescence ratio was 0.986. Sequence AGACGCGAGT has a switch fluorescence ratio of 1.01.
